Measured values from the supplement of paper PMC4604168 (melanoma cell lines).
The list shows a part of the results. Many values rest on one well or one pass, so single values are uncertain.

Key:
Assay in all cases: cell count relative to DMSO control; melanoma cells; higher = more viable cells
Settings in all cases: library dose: standard library concentration; 72 h
[1] = system: SkMel28
[2] = system: SkMel2
[3] = system: SkMel30
[4] = system: SkMel5
[5] = system: UACC257
[6] = system: UACC62
[7] = system: WM115
[8] = system: WM1716
[9] = system: WM1745
[10] = system: WM3526
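Also: cells treated in 1,536-well plates, then fixed and DAPI-stained, with nuclei counted from automated high-throughput microscope images.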

Structure (SMILES)	cell count [1] [%]	cell count [2] [%]	cell count [3] [%]	cell count [4] [%]	cell count [5] [%]	cell count [6] [%]	cell count [7] [%]	cell count [8] [%]	cell count [9] [%]	cell count [10] [%]
Cc1ccc(Nc2nccc(N(C)c3ccc4c(C)n(C)nc4c3)n2)cc1S(N)(=O)=O [Pazopanib] + Nc1ncn([C@H]2C[C@H](O)[C@@H](CO)O2)c(=O)n1 [decitabine] (first compound 2 µM, partner dose 0.5 µM)	102	101	94.7	84	86.6	62.4	77.5	67.7	94.4	84
O=C(/C=C/c1cccnc1)NCCCCC1CCN(C(=O)c2ccccc2)CC1 + Cc1cn(-c2cc(NC(=O)c3ccc(C)c(Nc4nccc(-c5cccnc5)n4)c3)cc(C(F)(F)F)c2)cn1 [nilotinib] (first compound 0.05 µM, partner dose 1 µM)	118	8.11	94	77.3	129	78.1	112	78.9	95.5	83.5
CC1(C)CCC(c2ccc(Cl)cc2)=C(CN2CCN(c3ccc(C(=O)NS(=O)(=O)c4ccc(N[C@H](CCN5CCOCC5)CSc5ccccc5)c(S(=O)(=O)C(F)(F)F)c4)cc3)CC2)C1 + C[C@@H](N)c1ccc(C(=O)Nc2ccnc3[nH]ccc23)cc1 [RKI983] (first compound 2 µM, partner dose 2 µM)	51.8	84.1	67.7	60.5	27.1	32.9	85.7	36.9	3.79	94.7
CC1(C)CCC(c2ccc(Cl)cc2)=C(CN2CCN(c3ccc(C(=O)NS(=O)(=O)c4ccc(N[C@H](CCN5CCOCC5)CSc5ccccc5)c(S(=O)(=O)C(F)(F)F)c4)cc3)CC2)C1 + C#Cc1cccc(Nc2ncnc3cc(OCCOC)c(OCCOC)cc23)c1 [erlotinib] (first compound 2 µM, partner dose 4 µM)	44.2	68	43.9	46.3	33.8	37.5	34.2	46.5	3.42	63.4
Cc1ccc(Nc2nccc(N(C)c3ccc4c(C)n(C)nc4c3)n2)cc1S(N)(=O)=O [Pazopanib] + O=C(O)c1ccc(-c2c[nH]c3ncc(-c4ccccc4)cc23)cc1C1CCCC1 [GSK650394] (first compound 2 µM, partner dose 0.8 µM)	88.2	88.6	86.8	83.3	79.3	72.3	108	71.9	98.1	74.1
CC1(C)CCC(c2ccc(Cl)cc2)=C(CN2CCN(c3ccc(C(=O)NS(=O)(=O)c4ccc(N[C@H](CCN5CCOCC5)CSc5ccccc5)c(S(=O)(=O)C(F)(F)F)c4)cc3)CC2)C1 + OCCn1cc(-c2cnc3nnn(Cc4ccc5ncccc5c4)c3n2)cn1 [PF04217903] (first compound 2 µM, partner dose 5 µM)	73.4	80.1	71.6	96	26.4	103	62.7	69	7.4	74.6
CC1(C)CCC(c2ccc(Cl)cc2)=C(CN2CCN(c3ccc(C(=O)NS(=O)(=O)c4ccc(N[C@H](CCN5CCOCC5)CSc5ccccc5)c(S(=O)(=O)C(F)(F)F)c4)cc3)CC2)C1 + C[C@@H](Oc1cc(-c2cnn(C3CCNCC3)c2)cnc1N)c1c(Cl)ccc(F)c1Cl [Crizotinib] (first compound 2 µM, partner dose 1 µM)	58.9	68.7	66.6	86.3	29.5	71.1	44.8	32.9	2.38	77.2
O=C(/C=C/c1cccnc1)NCCCCC1CCN(C(=O)c2ccccc2)CC1 + C[C@@H](Oc1cc(-c2cnn(C3CCNCC3)c2)cnc1N)c1c(Cl)ccc(F)c1Cl [Crizotinib] (first compound 0.05 µM, partner dose 1 µM)	60.5	16.6	84.9	92.3	96.9	82.5	67.7	76.2	71.4	81.3
CC1(C)CCC(c2ccc(Cl)cc2)=C(CN2CCN(c3ccc(C(=O)NS(=O)(=O)c4ccc(N[C@H](CCN5CCOCC5)CSc5ccccc5)c(S(=O)(=O)C(F)(F)F)c4)cc3)CC2)C1 + Cc1ccc(NC(=O)c2cccc(N(C)C)c2)cc1NC(=O)c1ccc(O)cc1 [ZM336372] (first compound 2 µM, partner dose 10 µM)	69.3	57.8	79.8	68.3	42.1	85.5	75.7	63.5	1.45	79.9
O=C(/C=C/c1cccnc1)NCCCCC1CCN(C(=O)c2ccccc2)CC1 + Cc1cc(N2CCOCC2)cc2[nH]c(-c3c(NC[C@@H](O)c4cccc(Cl)c4)cc[nH]c3=O)nc12 [BMS536924] (first compound 0.05 µM, partner dose 1 µM)	102	15	76.7	82	93.2	95.2	99	75.8	49.9	66.2
